This is an account of results in paper PMC12136788.

The chains are these.
T1: UNK ZnF1-3 (human, UniProt Q9C0B0 31-174)
T1 sequence: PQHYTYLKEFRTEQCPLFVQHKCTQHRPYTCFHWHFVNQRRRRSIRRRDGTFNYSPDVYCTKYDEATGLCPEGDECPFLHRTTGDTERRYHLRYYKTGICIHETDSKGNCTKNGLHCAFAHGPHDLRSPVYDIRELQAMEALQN

B1: chr10:59412704:59412705:-_ENSMUSG00000020108_ENSMUST00000020308|mus_mus|FALSE|FALSE (ssRNA)
RNA: GGGAGUUCUACAGUCCGACGAUCCUGGCUGCAGCUCCCAGGUGUAAUUUUGUUUCAAGUGUCGAAGAUCCCGAAUGAUCCUAACACCCACCCCAUUCCUACUCUUACAUUCAUGCAGUCUGUAAGAUAGCUGCCUCGAACAGGCAACAGAGGAUUGAGCAUCA
B2: 48613876_48613996_75_5pUTR_ENSMUSG00000020372_ENSMUST00000020640|mouse|control|control (ssRNA)
RNA: GGGAGUUCUACAGUCCGACGAUCGGGUCCCGCGAAGGGUCAUCUGCUCGGUCAUGGCUGCAGUUGAUGCGAGGGUCGCCGCAGCGACAAGGAUGGCACCGGAUAGCUCAGAGAGCCAAGCACCACAGCGGCUGCCACCACGACCAACAGAGGAUUGAGCAUCA
B3: chrX:12253581:12253582:-_ENSMUSG00000064127_ENSMUST00000096495|mus_mus|motif|central (ssRNA)
RNA: GGGAGUUCUACAGUCCGACGAUCUUAAAAAGUCCCUGACUGGCUUCAAGAGACAGUACAGUACUCUUAAAAAGAAAUCCGGUUGAGAUGUACCAGUGCCAGAAACUCCACUGAACACUGGACAGGCACUGCACUGUGGACUUUCAACAGAGGAUUGAGCAUCA
B4: chr1:90180419:90180420:+_ENSG00000171488_ENST00000370454|hu_hu|motif|central (ssRNA)
RNA: GGGAGUUCUACAGUCCGACGAUCAGCCCGACAGUCACCCAGUUCAGGAGGGAGGAUUUCAAAGUGAUUACCUUUUACAUCGGAGUAGGAAAGAAAUAGCAAAUUUCCAAUUUUCGGUGAAAGUACAGAUAGGCUGUUUUUUCCCAACAGAGGAUUGAGCAUCA
B5: 160201109_160201584_1196_CDS_ENSG00000120438_ENST00000392168|human|control|control (ssRNA)
RNA: GGGAGUUCUACAGUCCGACGAUCAGCCUUAGUAUUUUUGAUUAAGAUCAGCUCAUCAUCACAAAUUCUCUCCUGUACCACUUCUUCUGCCUGUCCCAACAUUGCAGCUUCAAAAGUUUCUUCACCUUCCAAAUUGGCCAGGGUCAACAGAGGAUUGAGCAUCA
B6: chr18:52893488:52893489:-_ENSG00000196628_ENST00000354452|hu_hu|hu_hu_hu_mus_True|1_98 (ssRNA)
RNA: GGGAGUUCUACAGUCCGACGAUCUAUUUAGACCAUUUCAAUGGAUUUAUGGCAUUUACUCAGUGCUGAUAGGUGGAAAAACUACUUCAACAGGGAUUUUUUUUUUCCUUAAUACAUGCCAAGAUUGUGUGGCUGUCAAAAAUACAACAGAGGAUUGAGCAUCA
B7: chr5:145543945:145543946:-_ENSG00000133706_ENST00000545646|hu_hu|hu_hu_hu_mus_True|98_108 (ssRNA)
RNA: GGGAGUUCUACAGUCCGACGAUCCUGAAUAGCCAGUGGCGGGAAAUAAUCAAGCCAGUGCUCUGCUUCAGAAAACUUCACUAUGUCGUCAUCAGAGAGCCCAAGGGAUUUCAUAAUGUCCCACUGGUACUUAGAAGAUCCUGCCAACAGAGGAUUGAGCAUCA
B8: chr6:149508383:149508384:+_ENSMUSG00000003452_ENSMUST00000086829|mus_mus|FALSE|FALSE (ssRNA)
RNA: GGGAGUUCUACAGUCCGACGAUCCUCCUUUAGGCAAAUAUAAAUUAUAAUUUCCAAAUAAGUCUUUUCUUCAUUCCUUUAUAGAUUUAUAUUCUCUAGAAGUUUUCAAAAUUCAUUUUUCCUCCUCUCUCUUCUUUUAAAUCCCAACAGAGGAUUGAGCAUCA
B9: chr7:87731985:87731986:-_ENSMUSG00000030527_ENSMUST00000122255|mus_hu|FALSE|FALSE (ssRNA)
RNA: GGGAGUUCUACAGUCCGACGAUCAAAUAGUUUACUCUGAAGUAUGCAGCUGCUUCAAAUGCUGAGGACCACAACUGGUUUUGUUACAAAGGCCGCAGUGAGUGCAGGCUCACGUGCUGUGGGCCAGGGCGACCCUGCCCGUGGCAACAGAGGAUUGAGCAUCA
B10: chr9:95013113:95013114:-_ENSG00000196305_ENST00000443024|hu_hu|hu_hu_hu_mus_False|8_98 (ssRNA)
RNA: GGGAGUUCUACAGUCCGACGAUCCUCAGUCAGAAAGGGUGUGUAGGGGGCCAUCAGUCUGCACAGAGAAAGCAGGACACUGAACAGUGUCUCCAGAGCCAUGACACAGUCUUCCACCCCACUCUCACCCUUUAAUCUCCUCCUCAACAGAGGAUUGAGCAUCA
B11: chr14:54894545:54894546:-_ENSG00000100528_ENST00000216416|hu_mus|motif|central (ssRNA)
RNA: GGGAGUUCUACAGUCCGACGAUCCUUCAUUGGUGGCGUUUUGCAUGCACUUAACUGGACCGAUUCUUCUGUGUUGUUCGGAGAGCUCACCAGAACAUAGAUCAUGCCGUAUAGGUAGUAAAAAAACGCUAGAAGGUAAAAAGCCAACAGAGGAUUGAGCAUCA
B12: chr1:120459247:120459248:-_ENSG00000134250_ENST00000256646|hu_mus|FALSE|FALSE (ssRNA)
RNA: GGGAGUUCUACAGUCCGACGAUCCCGAGCCACAUCCCGGGGAAGGCGGUCCAUGUGGUCAGUGAUGUCCCGGUUGGCAAAAUGGUCUAACAGGAUUUUGGCCGCUUCAUAACUUCCCUCUCGGGCAGCAAGAAACAAAGGUGUCAACAGAGGAUUGAGCAUCA
B13: chr16:78329203:78329204:+_ENSMUSG00000022865_ENSMUST00000023572|mus_hu|FALSE|FALSE (ssRNA)
RNA: GGGAGUUCUACAGUCCGACGAUCUACUCGGCCUUUCAGAUCUGGAUAGUAGUCAUCAUAAAUUUUGUCUCCAGAAUAUAAAAUAAUCACUUGAUCCACCUUCUGAUUAUCAGCUGGUGAUAUCAGCCACUCGAUGUCCAGCGGCAACAGAGGAUUGAGCAUCA
B14: chr22:32879901:32879902:+_ENSG00000100225_ENST00000397426|hu_mus|FALSE|FALSE (ssRNA)
RNA: GGGAGUUCUACAGUCCGACGAUCCUCUUCCAUACUCAUGGCAUCCUGAAUUGACUCAGCUUCAACAUUUUGACUAGGCCCUUCCAUACUGUCAUCAGUCCAGGCAUCAAAUGGGGUGGCCUGUCCUUGGGAUGAAUCAGUCCCCAACAGAGGAUUGAGCAUCA
B15: chr1:213174215:213174216:-_ENSG00000174606_ENST00000366962|hu_hu|motif|central (ssRNA)
RNA: GGGAGUUCUACAGUCCGACGAUCUGUCUUUUCUACUUUUGGUACCUGCUGUACCUCAUACACACAGUUCUGUGAGAUACCGGGGUUUGGGGGCCAAAUUGGAAUAGAUAAAAUUCUUUGUCCCCGUGAAGACUGUUCCUGGCCCAACAGAGGAUUGAGCAUCA
B16: chr7:135612270:135612271:-_ENSG00000105887_ENST00000393085|hu_mus|hu_hu_hu_mus_False|58_108 (ssRNA)
RNA: GGGAGUUCUACAGUCCGACGAUCGUUUCUGAGAUGUAUGUUAAAUAGUACUUCAGUGGAAAACAAAACUUAACCUUUCGCUAAUGCGUGUUGUACCAAAAGCAGACAUUUUAGCUUCAUUUAUUCAAAAAUAUUAACAUUAAGCAACAGAGGAUUGAGCAUCA
B17: chr6:51416610:51416611:-_ENSMUSG00000004980_ENSMUST00000090002|perfect_dup|motif|central (ssRNA)
RNA: GGGAGUUCUACAGUCCGACGAUCCCUAUCGGUAAUUAUUUCAAUAGUAUCAAUUUUUCCAUACUCUUCAAAGUAAUCUCGGAGGUGGUGUUCCUCAGUAUCUUCCUUAAUUCCACCAACAAACAGCUUCUUCACAGUCACAUGCAACAGAGGAUUGAGCAUCA
B18: 42872735_42873035_6896_CDS_ENSG00000105429_ENST00000334370|human|control|control (ssRNA)
RNA: GGGAGUUCUACAGUCCGACGAUCCAGGAAGGCCCAGGAGGCCCCCGGACGCCCACAUGUCAGCCCAUCACGGGGGCCGCUGAGUCCACCCUCCAUGCAGCGGCCACCCCCAUCCUGGCCCCCCCAGGCACACCAGCCGCAAUGCAACAGAGGAUUGAGCAUCA
B19: chr5:34519336:34519337:-_ENSMUSG00000037235_ENSMUST00000042701|mus_mus|FALSE|FALSE (ssRNA)
RNA: GGGAGUUCUACAGUCCGACGAUCGGUGGUCAUUAAGGCCCCUACACGGAUCCUGCCGAGAUUUGUAGAAAUGAUAUUUAAUACUUCUGGAAUGAUUAGGAAUCUGAGAACAGAUUGUGGGUGGCUACGCUGGACUCCAGGAUGCAACAGAGGAUUGAGCAUCA
B20: chr11:22899103:22899104:+_ENSMUSG00000007739_ENSMUST00000173867|mus_mus|motif|central (ssRNA)
RNA: GGGAGUUCUACAGUCCGACGAUCUAAAAUAUAGGCUCUCUCCUCUCGAAGCACUCGAUCCAUCUGGGCAUAGUCAGAUACGGCGGUUUGAUUAUCCAUAUCUGUUUUAGGAGCAGAUAAGCAAAACUGAAUAAGCCCAAUCUUCAACAGAGGAUUGAGCAUCA
B21: 81579510_81579630_3752_3pUTR_ENSG00000153956_ENST00000356860|human|control|control (ssRNA)
RNA: GGGAGUUCUACAGUCCGACGAUCACACGUUUAAGGAUCUGACACCCUGACAUGCAGCCAGUGGGUGCCUUAGGAGUCUGCGCCUUAGUGUUAUGCCAUGGAACAGGCCCAGCUAAUGUUUGUCUGAUUUUAUAGCUGACCCUACAACAGAGGAUUGAGCAUCA
B22: chr11:29607950:29607951:+_ENSMUSG00000020458_ENSMUST00000102843|mus_mus|FALSE|FALSE (ssRNA)
RNA: GGGAGUUCUACAGUCCGACGAUCGGGUGAGGAAUCAUCCACGAGCUCACAGUGAUCAGGCACCGACUUCUCAAAUUUUGCUAUUUCUGAAUAAUUAGAGAACUCUGGACUUGGCUCAGUGGAGAGCUUUGUUUCUUUAAUUAACAACAGAGGAUUGAGCAUCA

This is one part of the list.

This experiment has as its target T1, UNK ZnF1-3. The experiment is described as follows: nsRBNS (natural sequence RNA bind-n-seq); RBNS binding buffer (assumed for nsRBNS): 25 mM Tris pH 7.5, 150 mM KCl, 3 mM MgCl2, 0.01% Triton X-100, 500 ug/ml BSA, 20 U/ml SUPERase-In, 4 C; UNK is unkempt and MSI1 is Musashi-1; names of the RNAs are library labels; protein concentration not given here; high values mean tight binding.
B1 yielded a binding signal of 1.16 enrichment R. For B2, the binding signal came out at 0.679 enrichment R. The value for B3 was 0.708 enrichment R. With B4 the figure was 1.63 enrichment R; with B5, 1.34 enrichment R. With B6 the figure was 0.999 enrichment R; with B7, 1.21 enrichment R. Regarding B8, the binding signal is 1.31 enrichment R.

For the molecule B9, the binding signal turned out to be 0.778 enrichment R. The value for B10 was 0.942 enrichment R; that for B11 was 1.38 enrichment R. With B12 the figure was 1.12 enrichment R. For B13, the binding signal worked out at 1.1 enrichment R. The value for B14 was 1.14 enrichment R. With B15 the figure was 0.761 enrichment R; with B16, 1 enrichment R. The value for B17 was 1.4 enrichment R; that for B18 was 0.97 enrichment R.

B19: the binding signal amounted to 1.17 enrichment R. The value for B20 was 1.07 enrichment R.

In turn, B21 gave a binding signal of 0.315 enrichment R. Molecule B22 gave a binding signal of 1.08 enrichment R.
